# The other results are listed elsewhere or left out. Read counts after selection give these values, which scatter widely.
# Columns and labels:
# Assay in all cases: mean normalised NGS count of phage-displayed peptide after selection on bait (% of reads); baits are purified protein domains named by gene / domain / UniProt id / residues; peptides come from disordered regions of human proteins; higher = stronger enrichment / binding
# MSN_FERM_1_P26038_1_322 = target: T1, MSN_FERM_1_P26038_1_322
# T1 chain: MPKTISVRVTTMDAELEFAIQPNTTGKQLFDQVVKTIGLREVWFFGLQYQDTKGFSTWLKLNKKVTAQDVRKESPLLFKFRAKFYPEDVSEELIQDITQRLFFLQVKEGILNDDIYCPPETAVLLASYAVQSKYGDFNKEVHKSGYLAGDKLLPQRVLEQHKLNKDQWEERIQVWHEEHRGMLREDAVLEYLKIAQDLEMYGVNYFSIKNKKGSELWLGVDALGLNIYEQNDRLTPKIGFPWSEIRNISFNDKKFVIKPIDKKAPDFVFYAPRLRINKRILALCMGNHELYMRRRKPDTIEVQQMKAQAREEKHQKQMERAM
# RDX_FERM_1_P35241_5_295 = target: T2, RDX_FERM_1_P35241_5_295
# T2 chain: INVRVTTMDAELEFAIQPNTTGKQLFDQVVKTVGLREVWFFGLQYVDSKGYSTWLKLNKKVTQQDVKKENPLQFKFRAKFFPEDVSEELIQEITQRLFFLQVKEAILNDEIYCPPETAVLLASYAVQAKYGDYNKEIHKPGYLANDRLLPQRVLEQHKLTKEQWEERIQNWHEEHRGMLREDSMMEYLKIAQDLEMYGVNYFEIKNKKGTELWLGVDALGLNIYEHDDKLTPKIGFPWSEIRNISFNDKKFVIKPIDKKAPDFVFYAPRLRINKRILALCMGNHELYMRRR
# NCK1_SH3_1_P16333_5_60 = target: NCK1_SH3_1_P16333_5_60
# Src_SH3__P12931_87_144 = target: Src_SH3__P12931_87_144
# OXSR1___O95747_434_527 = target: OXSR1___O95747_434_527
# Sequence of OXSR1___O95747_434_527 (chain, as listed by the source): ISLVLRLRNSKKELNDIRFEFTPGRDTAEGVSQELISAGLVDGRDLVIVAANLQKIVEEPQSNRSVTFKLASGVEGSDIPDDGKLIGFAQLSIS
# [1] = replicate selections in which the peptide was seen: 3
# [2] = replicate selections in which the peptide was seen: 4
# [3] = replicate selections in which the peptide was seen: 6
# [4] = replicate selections in which the peptide was seen: 5
# [5] = replicate selections in which the peptide was seen: 2
binder,measurement,setting,value
YYDFSKGIDHKKSDGR [UBIAD1 104-119 mut Q9Y5Z9.D118G],mean normalised NGS count,MSN_FERM_1_P26038_1_322; [1],0.0219
same,mean normalised NGS count,RDX_FERM_1_P35241_5_295; [1],0.0697
YTYNVSNLDVGQLSAP [KMT2D 4894-4909 mut O14686.R4904G],mean normalised NGS count,MSN_FERM_1_P26038_1_322; [2],0.0273
same,mean normalised NGS count,RDX_FERM_1_P35241_5_295; [1],0.00618
SFQVNTSKAGVAPLQV [FLNA 1470-1485 mut P21333.D1474N],mean normalised NGS count,MSN_FERM_1_P26038_1_322; [2],28.2
MYNIQSQAPSITESST [CBL 734-749 wt],mean normalised NGS count,MSN_FERM_1_P26038_1_322; [2],0.327
same,mean normalised NGS count,RDX_FERM_1_P35241_5_295; [3],24.7
QTSKRHDSYTFPELKL [BRCA1 687-702 mut P38398.D695Y],mean normalised NGS count,MSN_FERM_1_P26038_1_322; [2],0.117
same,mean normalised NGS count,RDX_FERM_1_P35241_5_295; [4],0.205
EYNVESIDGQPGAFTA [RPL5 129-144 wt],mean normalised NGS count,MSN_FERM_1_P26038_1_322; [2],0.0248
EYNVESIDGQPSAFTA [RPL5 129-144 mut P46777.G140S],mean normalised NGS count,MSN_FERM_1_P26038_1_322; [2],0.0811
FYQVSATRNEKMRHSI [BRCA2 2382-2397 mut P51587.L2396S],mean normalised NGS count,MSN_FERM_1_P26038_1_322; [2],0.475
MYDIISSPSKDSTKLT [NIPBL 344-359 wt],mean normalised NGS count,MSN_FERM_1_P26038_1_322; [2],0.104
same,mean normalised NGS count,RDX_FERM_1_P35241_5_295; [5],0.00645
RYDVDDPFSVEEGVSY [SLC7A14 695-710 mut Q8TBB6.F708V],mean normalised NGS count,MSN_FERM_1_P26038_1_322; [2],0.0194
SYDTGEVKVTVENPEG [TTN 1904-1919 mut Q8WZ42.A1914V],mean normalised NGS count,MSN_FERM_1_P26038_1_322; [2],0.136
GYVVEHQKVGDEAWIK [TTN 21633-21648 wt],mean normalised NGS count,MSN_FERM_1_P26038_1_322; [2],0.0681
EYQFHVKAYNEKGKSD [TTN 25207-25222 mut Q8WZ42.R25211H],mean normalised NGS count,MSN_FERM_1_P26038_1_322; [2],0.0637
SWDVPENDGRAPVKNY [TTN 27224-27239 mut Q8WZ42.G27233R],mean normalised NGS count,MSN_FERM_1_P26038_1_322; [2],0.0789
YEVSSSLGYTSTGDVL [DEPDC5 543-558 mut O75140.R555G],mean normalised NGS count,MSN_FERM_1_P26038_1_322; [4],0.087
YSVSTIEPREDLLSPV [SLITRK5 833-848 wt],mean normalised NGS count,MSN_FERM_1_P26038_1_322; [4],0.0468
MFQLPTLNFSPEQVDS [SIX3 79-94 mut O95343.A93D],mean normalised NGS count,MSN_FERM_1_P26038_1_322; [4],0.329
same,mean normalised NGS count,RDX_FERM_1_P35241_5_295; [1],0.0786
TYTPNVHMVSTTLPVD [RAF1 258-273 mut P04049.S259Y],mean normalised NGS count,MSN_FERM_1_P26038_1_322; [4],1.29
same,mean normalised NGS count,RDX_FERM_1_P35241_5_295; [2],0.109
YAFPPPSQYNVSEIPS [ARSB 449-464 mut P15848.W450C],mean normalised NGS count,MSN_FERM_1_P26038_1_322; [4],2.97
YQVSTHKQSESAHGRT [FLG 2416-2431 mut P20930.E2422K],mean normalised NGS count,MSN_FERM_1_P26038_1_322; [4],0.0469
SYSISGILGITSPSAD [PAX5 178-193 wt],mean normalised NGS count,MSN_FERM_1_P26038_1_322; [4],0.552
same,mean normalised NGS count,RDX_FERM_1_P35241_5_295; [4],5.94
YDVYGGENEVIPEVLR [STOX1 607-622 mut Q6ZVD7.E608D],mean normalised NGS count,MSN_FERM_1_P26038_1_322; [4],0.0681
YEVYGGENEVIPEVLR [STOX1 607-622 wt],mean normalised NGS count,MSN_FERM_1_P26038_1_322; [4],0.0305
GYVVEHQKVGDKAWIK [TTN 21633-21648 mut Q8WZ42.E21644K],mean normalised NGS count,MSN_FERM_1_P26038_1_322; [4],0.0608
WMVPTSVERLGEGGSI [SETD5 1166-1181 mut Q9C0A6.R1176G],mean normalised NGS count,MSN_FERM_1_P26038_1_322; [4],0.457
YYDFSKGIDHKKSDDR [UBIAD1 104-119 wt],mean normalised NGS count,MSN_FERM_1_P26038_1_322; [4],0.0184
same,mean normalised NGS count,RDX_FERM_1_P35241_5_295; [2],0.126
MFQLPTLNFSPEQGAS [SIX3 79-94 mut O95343.V92G],mean normalised NGS count,MSN_FERM_1_P26038_1_322; [3],0.458
same,mean normalised NGS count,RDX_FERM_1_P35241_5_295; [2],0.0965
YDLLPFLSSTISPYYA [CRYAA 34-49 mut P02489.R49C],mean normalised NGS count,MSN_FERM_1_P26038_1_322; [3],0.476
same,mean normalised NGS count,RDX_FERM_1_P35241_5_295; [1],0.107
LFQITTSADWDGLLAP [SCN1A 1717-1732 mut P35498.G1725D],mean normalised NGS count,MSN_FERM_1_P26038_1_322; [3],0.497
YTFPELKLTNAPGSFT [BRCA1 695-710 mut P38398.D695Y],mean normalised NGS count,MSN_FERM_1_P26038_1_322; [3],0.0415
LFQITTSADWDGLLAP [SCN5A 1717-1732 mut P35498.G1725D],mean normalised NGS count,MSN_FERM_1_P26038_1_322; [3],0.497
LFQITTSADWDGLLAP [SCN9A 1717-1732 mut P35498.G1725D],mean normalised NGS count,MSN_FERM_1_P26038_1_322; [3],0.497
KYSLTLVNPAGEKAVF [TTN 19602-19617 wt],mean normalised NGS count,MSN_FERM_1_P26038_1_322; [3],0.532
KYSLTPVNPAGEKAVF [TTN 19602-19617 mut Q8WZ42.L19607P],mean normalised NGS count,MSN_FERM_1_P26038_1_322; [3],0.837
same,mean normalised NGS count,RDX_FERM_1_P35241_5_295; [1],0.827
SWDVPENDGGAPVKNY [TTN 27224-27239 wt],mean normalised NGS count,MSN_FERM_1_P26038_1_322; [3],0.134
same,mean normalised NGS count,RDX_FERM_1_P35241_5_295; [1],0.0852
PTKIREYTLTHLPQGA [TTN 31013-31028 wt],mean normalised NGS count,MSN_FERM_1_P26038_1_322; [3],0.051
same,mean normalised NGS count,RDX_FERM_1_P35241_5_295; [1],0.012
AYLVQRGAEDRDWQQQ [OPTN 532-547 mut Q96CV9.R545Q],mean normalised NGS count,MSN_FERM_1_P26038_1_322; [3],0.214
AYLVQRGAEDRDWRQQ [OPTN 532-547 wt],mean normalised NGS count,MSN_FERM_1_P26038_1_322; [3],0.0688
QWYPVTLPTGSGGSGG [SYNGAP1 361-376 wt],mean normalised NGS count,MSN_FERM_1_P26038_1_322; [3],0.0726
LFQITTSADWDGLLAP [SCN2A 1717-1732 mut P35498.G1725D],mean normalised NGS count,MSN_FERM_1_P26038_1_322; [3],0.497
LFQITTSADWDGLLAP [SCN3A 1717-1732 mut P35498.G1725D],mean normalised NGS count,MSN_FERM_1_P26038_1_322; [3],0.497
LFQITTSADWDGLLAP [SCN8A 1717-1732 mut P35498.G1725D],mean normalised NGS count,MSN_FERM_1_P26038_1_322; [3],0.497
LFQITTSADWDGLLAP [SCN10A 1717-1732 mut P35498.G1725D],mean normalised NGS count,MSN_FERM_1_P26038_1_322; [3],0.497
SPKAPVPLLPPLPPPP [MECP2 375-390 wt],mean normalised NGS count,NCK1_SH3_1_P16333_5_60; [5],0.00925
FPPLPPPPPEPESSED [MECP2 383-398 mut P51608.L383F],mean normalised NGS count,NCK1_SH3_1_P16333_5_60; [5],0.00626
SPKAPVPLFPPLPPPP [MECP2 375-390 mut P51608.L383F],mean normalised NGS count,NCK1_SH3_1_P16333_5_60; [3],0.393
same,mean normalised NGS count,Src_SH3__P12931_87_144; [2],0.0551
WPLPQPPSPMPAASAQ [FOXL2 204-219 mut P58012.Y215C],mean normalised NGS count,NCK1_SH3_1_P16333_5_60; [3],0.51
same,mean normalised NGS count,Src_SH3__P12931_87_144; [3],0.573
KRNIVVKTVEMRDGEV [GFAP 405-420 wt],mean normalised NGS count,OXSR1___O95747_434_527; [5],0.108
PGWLVTVVEEKELVRR [SRCAP 2751-2766 mut Q6ZRS2.R2753W],mean normalised NGS count,OXSR1___O95747_434_527; [5],1.12
FEGMRFVVNALIGAIP [SCN9A 1304-1319 mut Q15858.V1309F],mean normalised NGS count,OXSR1___O95747_434_527; [1],25.5
HEPGKLQFEVQKVDRP [TTN 1952-1967 wt],mean normalised NGS count,OXSR1___O95747_434_527; [1],1.79
EYRFHVLAANAGGPGE [TTN 31029-31044 mut Q8WZ42.R31033H],mean normalised NGS count,OXSR1___O95747_434_527; [1],0.524
IHSQEQGRFHTENTDD [TTN 34296-34311 mut Q8WZ42.I34306T],mean normalised NGS count,OXSR1___O95747_434_527; [1],0.0373
